This is an account of results in a collection of fitness landscapes (doi:10.1126/science.1257360).

B1: PhoQ; a variant is named by its letters at X, in order, P23837 (parent)
chain: MKKLLRLFFPLSLRVRFLLATAAVVLVLSLAYGMVALIGYSVSFDKTTFRLLRGESNLFYTLAKWENNKLHVELPENIDKQSPTMTLIYDENGQLLWAQRDVPWLMKMIQPDWLKSNGFHEIEADVNDTSLLLSGDHSIQQQLQEVREDDDDAEMTHSVAVNVYPATSRMPKLTIVVVDTIPVELKSSYMVWSWFIYVLSANLLLVIPLLWVAAWWSLRPIEALAKEVRELEEHNRELLNPATTRELTSLVRNLNRLLKSERERYDKYRTTLTDLTHSLKTPLXXLQXXLRSLRSEKMSVSDAEPVMLEQISRISQQIGYYLHRASMRGGTLLSRELHPVAPLLDNLTSALNKVYQRKGVNISLDISPEISFVGEQNDFVEVMGNVLDNACKYCLEFVEISARQTDEHLYIVVEDDGPGIPLSKREVIFDRGQRVDTLRPGQGVGLAVAREITEQYEGKIVAGESMLGGARMEVIFGRQHSAPKDE

The list shows a part of the results.

In this test the parent is B1. In words: enrichment ratio after two sorts for PhoP signalling (ratio (wild type AVST 3.29)); higher = more functional. As to conditions: with PhoP (E. coli).
Turning to QGKA, the enrichment ratio is at most 0.25.

Regarding KEEQ, the enrichment ratio is at most 0.25.

In the case of RYHV, the enrichment ratio was at most 0.25.

For the variant DMKW, the enrichment ratio was at most 0.25.

VHPP: the enrichment ratio was at most 0.25.

Take WGRC: the enrichment ratio is at most 0.25.

Consider YAKK, for which the enrichment ratio is at most 0.25.

Take KNNI: the enrichment ratio is at most 0.25.

Regarding VDAQ, the enrichment ratio is at most 0.25.

On to ERKE, for which the enrichment ratio is at most 0.25.

QRAP: the enrichment ratio is at most 0.25.

With HKNF, the enrichment ratio is at most 0.25.

Take HSAE: the enrichment ratio is at most 0.25.

For the variant HMPV, the enrichment ratio was at most 0.25.

As to NRNP, the enrichment ratio is at most 0.25.

Regarding AIMS, the enrichment ratio stood at 14.3.

For the variant FLGV, the enrichment ratio is at most 0.25.

As for ACKR, the enrichment ratio was at most 0.25.

HKGQ: the enrichment ratio is at most 0.25.

As to NSWP, the enrichment ratio is at most 0.25.

On to RNGD, for which the enrichment ratio was at most 0.25.

Turning to RLTM, the enrichment ratio is at most 0.25.

For the variant PCCN, the enrichment ratio is at most 0.25.

As for YKLR, the enrichment ratio was at most 0.25.

With DVCH, the enrichment ratio was at most 0.25.

Consider VMII, for which the enrichment ratio is at most 0.25.

As for DPCV, the enrichment ratio is at most 0.25.

VQHF: the enrichment ratio was at most 0.25.

For the variant QRFW, the enrichment ratio was at most 0.25.

In the case of TVQW, the enrichment ratio is at most 0.25.

DDTT: the enrichment ratio is at most 0.25.

In the case of HIPI, the enrichment ratio was at most 0.25.

As for YTVL, the enrichment ratio worked out at 0.419.

In the case of YQQA, the enrichment ratio is at most 0.25.

For the variant YPVQ, the enrichment ratio was at most 0.25.

For WTNS, the enrichment ratio is at most 0.25.

Turning to SDRH, the enrichment ratio was at most 0.25.

Turning to YWHL, the enrichment ratio was at most 0.25.

Consider PDFE, for which the enrichment ratio is at most 0.25.

Turning to PRFV, the enrichment ratio is at most 0.25.

As to AWIV, the enrichment ratio is at most 0.25.

With QHHA, the enrichment ratio is at most 0.25.

For HNLH, the enrichment ratio was at most 0.25.

Turning to GPRV, the enrichment ratio is at most 0.25.

Consider LVHN, for which the enrichment ratio was at most 0.25.

With KYQV, the enrichment ratio is at most 0.25.

For the variant GWFA, the enrichment ratio is at most 0.25.

EEYW: the enrichment ratio was at most 0.25.

Turning to NMVW, the enrichment ratio is at most 0.25.

As to EVQP, the enrichment ratio was at most 0.25.

Regarding NPSA, the enrichment ratio is at most 0.25.

As to IEWK, the enrichment ratio was at most 0.25.

With RWTP, the enrichment ratio was at most 0.25.

As for ADYT, the enrichment ratio is at most 0.25.

Take DGAP: the enrichment ratio is at most 0.25.

As for TWNT, the enrichment ratio was at most 0.25.

Regarding QIDV, the enrichment ratio was at most 0.25.

As for RKTP, the enrichment ratio was at most 0.25.

Take TRAH: the enrichment ratio is at most 0.25.

Take IADN: the enrichment ratio was at most 0.25.

In the case of MNAC, the enrichment ratio was determined as 27.7.

With TALN, the enrichment ratio stood at 18.9.

Consider QMSL, for which the enrichment ratio was 1.28.

In the case of VPWA, the enrichment ratio is at most 0.25.

In the case of KLNK, the enrichment ratio is at most 0.25.

Consider WSKN, for which the enrichment ratio was at most 0.25.

Regarding ACLI, the enrichment ratio was found to be 5.06.

In the case of DSAA, the enrichment ratio is at most 0.25.

WKIL: the enrichment ratio was at most 0.25.

Consider HLAE, for which the enrichment ratio was at most 0.25.

Consider RKID, for which the enrichment ratio is at most 0.25.

Turning to CTIS, the enrichment ratio is at most 0.25.

For the variant VWGL, the enrichment ratio was at most 0.25.

On to RTKN, for which the enrichment ratio is at most 0.25.

Take SEQM: the enrichment ratio turned out to be 2.2.

Take RFSQ: the enrichment ratio is at most 0.25.

For the variant SGRA, the enrichment ratio was at most 0.25.

As for DLID, the enrichment ratio was at most 0.25.

For the variant VYDM, the enrichment ratio is at most 0.25.

Turning to AMDL, the enrichment ratio is at most 0.25.

With NTCF, the enrichment ratio was at most 0.25.

For SHKA, the enrichment ratio was at most 0.25.

Take WDPW: the enrichment ratio was at most 0.25.

As for WHVM, the enrichment ratio was at most 0.25.

PGYF: the enrichment ratio is at most 0.25.

Consider GSVP, for which the enrichment ratio is at most 0.25.

For LHFA, the enrichment ratio is at most 0.25.

As for LPGQ, the enrichment ratio was at most 0.25.

For the variant RYPN, the enrichment ratio was at most 0.25.

With WHGC, the enrichment ratio was at most 0.25.

Take RPDR: the enrichment ratio is at most 0.25.

Consider HDQD, for which the enrichment ratio is at most 0.25.

Turning to LSSA, the enrichment ratio was at most 0.25.

In the case of RMHY, the enrichment ratio was at most 0.25.

DHSV: the enrichment ratio was at most 0.25.

For EPVC, the enrichment ratio was at most 0.25.

Regarding GGIE, the enrichment ratio was at most 0.25.

For ITHW, the enrichment ratio stood at 0.345.

As to RTMA, the enrichment ratio is at most 0.25.

Turning to FPDA, the enrichment ratio is at most 0.25.

Consider QFDP, for which the enrichment ratio was at most 0.25.

As to IIVR, the enrichment ratio is at most 0.25.

For the variant ETMR, the enrichment ratio is at most 0.25.

Consider FCFK, for which the enrichment ratio is at most 0.25.

Turning to RRFM, the enrichment ratio is at most 0.25.

For SSHA, the enrichment ratio was at most 0.25.

For GFEG, the enrichment ratio was at most 0.25.

For GEFK, the enrichment ratio is at most 0.25.

In the case of FDNM, the enrichment ratio was at most 0.25.

For the variant PCSP, the enrichment ratio is at most 0.25.

For the variant YISY, the enrichment ratio is 0.665.

For MFKH, the enrichment ratio was at most 0.25.

As for WEMP, the enrichment ratio is at most 0.25.

FHHR: the enrichment ratio is at most 0.25.

On to NTTD, for which the enrichment ratio was at most 0.25.

Consider KSTR, for which the enrichment ratio was at most 0.25.

Take WRFI: the enrichment ratio is at most 0.25.

NWIC: the enrichment ratio is at most 0.25.

For the variant RDLK, the enrichment ratio is at most 0.25.

Turning to YMLM, the enrichment ratio was at most 0.25.

As to IDMR, the enrichment ratio was at most 0.25.

Turning to AKPC, the enrichment ratio is at most 0.25.

Consider GEPY, for which the enrichment ratio was at most 0.25.

Consider FAHR, for which the enrichment ratio was at most 0.25.

As for DTIY, the enrichment ratio is at most 0.25.

For ITPR, the enrichment ratio was at most 0.25.

For GMAG, the enrichment ratio was found to be 0.536.

For IMPV, the enrichment ratio is at most 0.25.

In the case of VCGV, the enrichment ratio was at most 0.25.

Regarding TKKF, the enrichment ratio is at most 0.25.

With GFRD, the enrichment ratio was at most 0.25.

As for YYGC, the enrichment ratio is at most 0.25.

With SKPT, the enrichment ratio was at most 0.25.

On to HQKM, for which the enrichment ratio is at most 0.25.

Take VDGY: the enrichment ratio is at most 0.25.

WQYG: the enrichment ratio was at most 0.25.

With SQFY, the enrichment ratio is at most 0.25.

With MQAA, the enrichment ratio is at most 0.25.

In the case of VRQW, the enrichment ratio is at most 0.25.

Regarding QLEG, the enrichment ratio is at most 0.25.

In the case of LCGM, the enrichment ratio is at most 0.25.

For the variant GNGL, the enrichment ratio amounted to 6.28.

On to KRYP, for which the enrichment ratio was at most 0.25.

Take KVGY: the enrichment ratio was at most 0.25.

With HQVV, the enrichment ratio was at most 0.25.

Take DGCY: the enrichment ratio is at most 0.25.

Take GCVQ: the enrichment ratio was at most 0.25.

Consider VDIS, for which the enrichment ratio was at most 0.25.

Regarding YPVH, the enrichment ratio is at most 0.25.

Turning to GTYH, the enrichment ratio was at most 0.25.

Take RLMM: the enrichment ratio is at most 0.25.

For IAYE, the enrichment ratio was at most 0.25.

GGTP: the enrichment ratio is at most 0.25.
